Measurements taken from PubChem BioAssay AID720709 (National Center for Advancing Translational Sciences (NCATS), 2013).
Among all 360,000 compounds or so, about 520 (0.14%) were called active. This list was built around the results that the source calls inconclusive (neither active nor inactive); the mix of calls is not that of the screen. Calls come from the whole dose curve; as a rule, active = well fitted inhibition curve with a large enough effect; inconclusive = small, poorly fitted or top-dose-only effect; inactive = no such curve, though single readings can be large or run the other way. Potencies of inconclusive entries are left out as doubtful fits.

These compounds were tested against Rap guanine nucleotide exchange factor 3 (Homo sapiens) (UniProt O95398) (assay: qHTS for Antagonist of cAMP-regulated guanine nucleotide exchange factor 3 (EPAC1): primary screen). Settings: EPAC1 GEF assay, Rap1b-BODIPY-GDP exchange fluorescence; activity change, negative = inhibition: at 115 µM (top of the series).
Note: nearly all actives have a fitted effect of over 50% in size.
Potency is the fitted concentration of half-maximal effect; tags give direction and shape of the fitted curve.
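Throughout, for activity change, negative = inhibition: plate controls were vehicle for no effect and positive control for full effect.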

Chain of UniProt O95398 (O95398 whole entry, looked up): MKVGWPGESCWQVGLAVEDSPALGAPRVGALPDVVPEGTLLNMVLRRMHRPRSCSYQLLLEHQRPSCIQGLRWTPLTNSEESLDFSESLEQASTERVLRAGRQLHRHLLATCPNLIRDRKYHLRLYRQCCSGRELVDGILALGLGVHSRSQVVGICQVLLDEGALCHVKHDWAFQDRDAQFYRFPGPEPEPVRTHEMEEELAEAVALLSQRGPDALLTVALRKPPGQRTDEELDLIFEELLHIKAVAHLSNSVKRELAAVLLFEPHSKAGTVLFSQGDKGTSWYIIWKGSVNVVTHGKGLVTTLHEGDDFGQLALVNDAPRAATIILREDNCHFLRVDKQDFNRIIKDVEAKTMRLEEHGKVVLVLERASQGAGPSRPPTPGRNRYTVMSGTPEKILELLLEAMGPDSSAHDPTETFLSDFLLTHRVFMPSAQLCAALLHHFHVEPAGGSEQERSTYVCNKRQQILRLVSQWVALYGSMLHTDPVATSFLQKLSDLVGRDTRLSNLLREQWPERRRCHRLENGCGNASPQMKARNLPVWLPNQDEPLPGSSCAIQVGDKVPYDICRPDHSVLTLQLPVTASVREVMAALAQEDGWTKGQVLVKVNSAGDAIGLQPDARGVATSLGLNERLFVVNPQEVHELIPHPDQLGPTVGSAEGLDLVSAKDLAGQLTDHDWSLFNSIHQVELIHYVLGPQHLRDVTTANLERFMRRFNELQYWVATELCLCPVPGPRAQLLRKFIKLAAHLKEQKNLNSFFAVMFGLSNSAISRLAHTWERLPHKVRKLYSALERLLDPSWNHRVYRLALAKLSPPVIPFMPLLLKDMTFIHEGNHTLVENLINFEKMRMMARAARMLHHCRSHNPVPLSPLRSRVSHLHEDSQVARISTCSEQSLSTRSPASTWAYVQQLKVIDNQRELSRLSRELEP

SMILES | Potency | activity change, negative = inhibition
Oc1ccc(N=Nc2ccccc2)o1 | inactive | –
Cc1noc(C)c1C(=O)OCC(=O)NCc1ccc(Cl)cc1 | inconclusive [inhibitor, single point] | –
C=CC(C)(C)c1c(O)c(CC=C(C)C)c(O)c2c(=O)c3ccc(O)c(O)c3oc12 | inconclusive [inhibitor, partial curve] | –
O=C(CSc1nc(-c2ccccc2)nc2c1CCCC2)N1CCOCC1 | inactive | –
C/C(=C\c1ccccc1)C(=O)NCCc1ccccc1 | inconclusive [inhibitor, partial curve, poor fit] | –
O=C(Nc1ccc2c(c1)CCCN2C(=O)c1ccccc1)c1ccccc1 | inconclusive [inhibitor, full curve, poor fit] | –
CCOC(=O)C1=C(c2ccccc2)NC(SCC(=O)Nc2cccc(C)c2)=C(C#N)C1c1ccco1 (centres undefined) | inconclusive [inhibitor, partial curve] | –
Cc1ccc(/C=N/Nc2cc(C)nc(NCc3ccccc3)n2)cc1 | inconclusive [inhibitor, single point] | –
NNC(=S)Nc1ccc(OC(F)(F)F)cc1 | inconclusive [inhibitor, partial curve] | –
CCc1cccc(NC(=S)N2CCC(c3ccccc3)C2)c1 (centres undefined) | inconclusive [inhibitor, partial curve] | –
Cc1cccc(C)c1NC(=O)C1c2ccccc2OCC(=O)N1CCCN1CCOCC1 (centres undefined) | inactive | –
Cc1c(C(=O)NCc2ccc(F)cc2)sc(=O)n1Cc1ccccc1F | inconclusive [inhibitor, partial curve] | –
COc1cc(C2CC(=O)N3CN(Cc4ccco4)CSC3=C2C#N)ccc1OCc1ccccc1 (centres undefined) | inactive | –
COc1ccc(OC)c(N(CC(=O)N2CCN(c3cc(Cl)ccc3C)CC2)S(C)(=O)=O)c1 | inconclusive [inhibitor, full curve, poor fit] | –
CCS(=O)(=O)N1CCN(c2ccc([N+](=O)[O-])c(N3CCOCC3)c2)CC1 | inconclusive [inhibitor, single point] | –
O=C(c1ccc(-c2ccccc2Cl)o1)N1CCCC(C(F)(F)F)C1 (centres undefined) | inconclusive [inhibitor, partial curve, poor fit] | –
CCC[C@H]1CC(=O)C=C(c2ccsc2)ON1C(=O)OC(C)(C)C | inactive | –
CCC(C)NC(=O)c1ccccc1NC(=O)CN1C(=O)c2ccccc2S1(=O)=O (centres undefined) | inconclusive [inhibitor, single point] | –
O=C(Nc1ccccc1Cl)c1cc(S(=O)(=O)N2CCCCC2)ccc1N1CCOCC1 | inactive | –
CCOC(=O)CNC(=O)c1sc(NC(=O)c2cccc(F)c2)nc1C | inactive | –
C(=C\c1ccco1)/c1ccc2ccccc2n1 | inactive | –
CCOC(=O)CN(C(=O)COc1nc(C)cc(C)c1C#N)c1ccc(F)cc1 | inconclusive [inhibitor, full curve, poor fit] | –

SMILES | Potency | activity change, negative = inhibition
CCCC(=O)Oc1ccc(-c2nccc(C(OC)OC)n2)cc1 | inactive | –
O=C1Nc2ccccc2SC(c2ccccc2)C1O (centres undefined) | inconclusive [inhibitor, partial curve] | –
O=C(O)c1ccccc1Nc1ccccc1C(=O)O | inactive | –
Cc1ccc(Oc2nc3ccccn3c(=O)c2/C=C(\C#N)C(=O)Nc2c(C)n(C)n(-c3ccccc3)c2=O)c(C)c1 | inconclusive [inhibitor, single point] | –
COc1cc(/C=C2\C(=O)ON=C2c2ccccc2)cc(Cl)c1O | inconclusive [inhibitor, partial curve] | –
O=C(NCc1ccccc1F)c1ccc(S(=O)(=O)Nc2cccc(C(F)(F)F)c2)cc1 | inconclusive [inhibitor, single point] | –
COC(c1ccccc1)c1nnc(CCC(=O)N(C)CCOc2ccccc2)o1 (centres undefined) | inconclusive [inhibitor, partial curve] | –
C=CCN1C=CC(=C/C=C(/C#N)C(=O)OCC)C=C1 | inactive | –
CCOc1ccc(OCc2ccc(C(=O)NCc3cccnc3)o2)cc1 | inconclusive [inhibitor, single point] | –
Cc1cc(/C=C2/C(=O)NN(c3ccccc3)C2=O)c(C)n1-c1cccc(O)c1 | inconclusive [inhibitor, single point] | –
COc1ccc(-n2c(SCC(=O)Nc3ccccc3OC)nc(O)cc2=O)cc1 | inconclusive [inhibitor, single point] | –
CCOC(=O)c1ccc(NC(=O)c2ccc(NC(=O)c3ccccc3)cc2)cc1 | inactive | –
CNC(=S)N/N=C/c1ccc(N(C)C)cc1 | inactive | –
O=C(COc1cccc(NC(=O)c2ccccc2)c1)c1ccc(F)cc1 | inconclusive [inhibitor, full curve, poor fit] | –
CN(CC(=O)NCc1ccc(F)cc1)CC(=O)Nc1ccc(Cl)c(C(F)(F)F)c1 | inconclusive [inhibitor, full curve] | –
Cn1c(=O)oc2cc(S(=O)(=O)Nc3cccc4c3CCCC4)ccc21 | inconclusive [inhibitor, single point] | –
O=C(Cc1c(F)cccc1Cl)Nc1cc(S(=O)(=O)N2CCCCC2)ccc1N1CCOCC1 | inconclusive [inhibitor, partial curve, poor fit] | –
CCc1ccc(OCCNC(=O)c2cc(SC)ccc2Cl)cc1 | – | inconclusive: -16.8% [inhibitor]
Cc1ccccc1NC(=O)c1nnn(-c2ccc3c(c2)OCCO3)c1N | inconclusive [inhibitor, partial curve] | –
O=C1Cc2ccccc2C(=O)N1CCc1ccccc1 | inconclusive [inhibitor, partial curve] | –
Cc1ccc(NC(=O)CNc2cccc(S(=O)(=O)N3CCCC3)c2)cc1F | inconclusive [inhibitor, partial curve] | –
COc1ccc([N+](=O)[O-])cc1/C=N/Nc1nn[nH]n1 | inconclusive [inhibitor, partial curve, poor fit] | –
